Experimental data: the supplement of paper PMC12217912
This is one part of the list. Sequences were assembled here from the parent chain. Inactive controls read about 0.05.

B1: TEV protease; numbered along this chain (parent)
chain: MGESLFKGPRDYNPISSSICHLTNESDGHTTSLYGIGFGPFIITNKHLFRRNNGTLVVQSLHGVFKVKDTTTLQQHLVDGRDMIIIRMPKDFPPFPQKLKFREPQREERICLVTTNFQTKSMSSMVSDTSCTFPSGDGIFWKHWIQTKDGQCGSPLVSTRDGFIVGIHSASNFTNTNNYFTSVPKNFMELLTNQEAQQWVSGWRLNADSVLWGGHKVFMVKPEEPFQPVKEATQL

Variants of: B1
Test: raw area under fraction-flipped curve 0-4 h after induction (AUC4h, not background-subtracted), DNA-recorder readout of cleavage of the substrate (dimensionless); higher = more cleavage of the substrate by the protease variant
Conditions: temperature: 34 °C; time window: 0-4 h after rhamnose induction
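Further: Bxb1 expression induced with 0.2% (w/v) L-rhamnose at OD600 near 0.5, cultures sampled hourly, flipped fraction per protease–substrate barcode pair counted by paired-end Illumina sequencing.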

Variant	area with substrate DNLYFQS	area with substrate GNLYFQS	area with substrate HNLYFQS	area with substrate LNLYFQS	area with substrate MNLYFQS	area with substrate NNLYFQS	area with substrate PNLYFQS	area with substrate RNLYFQS	area with substrate SNLYFQS	area with substrate TNLYFQS	area with substrate WNLYFQS	area with substrate INLYFQS	area with substrate VNLYFQS	area with substrate FNLYFQS	area with substrate KNLYFQS	area with substrate YNLYFQS	area with substrate QNLYFQS
MGESLFKGPRDYNPISSSICHLTNESDGHTTSLYGIGFGPFIITNKHLFRRNNGTLVVQSLHGVFKVKDTTTLQQHLVDGRDMIIIRMPKDFPPFPQKLKFREPQREERICLVTTNFQTKSMSSMVSDTSCTFPSGDGIFWKHWIQTKDGQCGSPLVSTRDGFIVGIHSASNFTNTNNYFTSVPKNFMELLTNQEAQQWVSGWRLNDDSVLWGGHKVFMVKPEEPFQPVKEATQL [A207D]	0.0775	0.0749	0.0592	0.0614	0.0573	0.0511	0.0736	0.0667	0.0605	0.0618	0.0587	–	–	–	–	–	–
MGESLFKGPRDYNPISSSICHLTNESDGHTTSLYGIGFGPFIITNKHLFRRNNGTLVVQSLHGVFKVKDTTTLQQHLVDGRDMIIIRMPKDFPPFPQKLKFREPQREERICLVTTNFQTKSMSSMVSDTSCTFPSGDGIFWKHWIQTKDGQCGSPLVSTRDGFIVGIHSASNFTNTNNYFTSVPKNFMELLTNQEAQQWVSEWRLNADSVLWGGHKVFMVKPEEPFQPVKEATQL [G202E]	0.0634	0.0617	0.0626	0.0796	0.0649	0.0495	0.0485	–	–	–	0.07	0.0542	–	–	–	–	–
MGESLFKGPRDYNPISSSICHLTNESDGHTTSLYGIGFGPFIITNKHLFRRNNGTLVVQSLHGVFKVKDTTTLQQHLVDGRDMIIIRMPKDFPPFPQKLKFREPQREERICLVTTNFQTKSMSSMVSDTSCTFPSGDGIFWKHWIQTKDGQCGSPLVSTRDGFIVGIHSASNFTNTNNYFTSVPKNFMELLTNQEAQQWVSGLRLNADSVLWGGHKVFMVKPEEPFQPVKEATQL [W203L]	0.0324	0.0666	–	0.0556	–	–	0.0594	–	0.0575	0.0614	–	0.0678	0.0612	–	–	–	–
MGESLFKGPRDYNPISSSICHLTNESDGHTTSLYGIGFGPFIITNKHLFRRNNGTLVVQSLHGVFKVKDTTTLQQHLVDGRDMIIIRMPKDFPPFPQKLKFREPQREERICLVTTNFQTKSMSSMVSDTSCTFPSGDGIFWKHWIQTKDGQCGSPLVSTRDGFIVGIHSASNFTNTNNYFTSVPKNFMELLTNQEAQQWVVGWRLNADSVLWGGHKVFMVKPEEPFQPVKEATQL [S201V]	0.0744	0.0578	0.0607	–	0.0494	–	0.0672	–	0.0612	0.0719	0.0547	–	0.0736	0.0567	–	–	–
MGESLFKGPRDYNPISSSICHLTNESDGHTTSLYGIGFGPFIITNKHLFRRNNGTLVVQSLHGVFKVKDTTTLQQHLVDGRDMIIIRMPKDFPPFPQKLKFREPQREERICLVTTNFQTKSMSSMVSDTSCTFPSGDGIFWKHWIQTKDGQCGSPLVSTRDGFIVGIHSASNFTNTNNYFTSVPKNFMELVTNQEAQQWVSGWRLNADSVLWGGHKVFMVKPEEPFQPVKEATQL [L191V]	0.108	–	0.0744	–	0.0556	0.0592	0.0661	–	0.0642	–	0.0551	–	–	0.0644	0.0579	0.0724	–
MGESLFKGPRDYNPISSSICHLTNESDGHTTSLYGIGFGPFIITNKHLFRRNNGTLVVQSLHGVFKVKDTTTLQQHLVDGRDMIIIRMPKDFPPFPQKLKFREPQREERICLVTTNFQTKSMSSMVSDTSCTFPSGDGIFWKHWIQTKDGQCGSPLVSTRDGFIVGIHSASNFTNTNNYFTSVPKNFMELLTNQEAQQWVSGWRRNADSVLWGGHKVFMVKPEEPFQPVKEATQL [L205R]	0.0645	–	–	0.0475	–	0.0582	–	0.0412	0.0589	0.0457	0.0586	0.0655	–	–	–	0.0474	–
MGESLFKGPRDYNPISSSICHLTNESDGHTTSLYGIGFGPFIITNKHLFRRNNGTLVVQSLHGVFKVKDTTTLQQHLVDGRDMIIIRMPKDFPPFPQKLKFREPQREERICLVTTNFQTKSMSSMVSDTSCTFPSGDGIFWKHWIQTKDGQCGSPLVSTRDGFIVGIHSASNFTNTNNYFTSVPKNFMELLTNQETQQWVSGWRLNADSVLWGGHKVFMVKPEEPFQPVKEATQL [A196T]	0.12	–	0.0694	0.0662	0.0693	0.0638	0.04	0.0641	0.0739	0.07	0.0599	0.0585	–	0.0609	–	–	–
MGESLFKGPRDYNPISSSICHLTNESDGHTTSLYGIGFGPFIITNKHLFRRNNGTLVVQSLHGVFKVKDTTTLQQHLVDGRDMIIIRMPKDFPPFPQKLKFREPQREERICLVTTNFQTKSMSSMVSDTSCTFPSGDGIFWKHWIQTKDGQCGSPLVSTRDGFIVGIHSASNFTNTNNYFTSVPKNFMELLTNQEYQQWVSGWRLNADSVLWGGHKVFMVKPEEPFQPVKEATQL [A196Y]	0.0612	–	–	–	0.0829	–	0.0877	0.0977	–	0.0632	–	–	–	–	0.0659	0.0549	0.0658
MGESLFKGPRDYNPISSSICHLTNESDGHTTSLYGIGFGPFIITNKHLFRRNNGTLVVQSLHGVFKVKDTTTLQQHLVDGRDMIIIRMPKDFPPFPQKLKFREPQREERICLVTTNFQTKSMSSMVSDTSCTFPSGDGIFWKHWIQTKDGQCGSPLVSTRDGFIVGIHSASNFTNTNNYFTSVPKNFMEELTNQEAQQWVSGWRLNADSVLWGGHKVFMVKPEEPFQPVKEATQL [L190E]	0.0645	–	0.055	0.0545	0.048	0.0663	0.0569	–	–	–	0.0559	0.0647	0.0654	0.0503	0.0744	0.0641	0.0566
MGESLFKGPRDYNPISSSICHLTNESDGHTTSLYGIGFGPFIITNKHLFRRNNGTLVVQSLHGVFKVKDTTTLQQHLVDGRDMIIIRMPKDFPPFPQKLKFREPQREERICLVTTNFQTKSMSSMVSDTSCTFPSGDGIFWKHWIQTKDGQCGSPLVSTRDGFIVGIHSASNFTNTNNYFTSVPKNFMEQLTNQEAQQWVSGWRLNADSVLWGGHKVFMVKPEEPFQPVKEATQL [L190Q]	0.0433	–	–	0.0699	–	0.0601	–	–	0.0719	–	0.0759	0.0659	–	–	0.0618	–	–
